Measurements from patent publication US11109592B2, “Selective weed control methods” (Corteva Agriscience LLC, priority 2013, dated 2021).

System: yellow mustard (Sinapis alba)
Conditions: in vivo

## COc1c(Cl)ccc(-c2cc(N)c(Cl)c(C(=O)O)n2)c1F [Compound I, 4-amino-3-chloro-6-(4-chloro-2-fluoro-3-methoxyphenyl)pyridine-2-carboxylic acid]
  Yield of yellow mustard, relative to untreated check treatment: not impacted
